Reference: the supplement of paper PMC12632987
In all, about 4,500 sequences were measured (“median log2 fold change of GCK-ALFA target abundance (FLAG IP / Myc IP barcode read proportion)”: median about 0.078, lowest 2% from about -0.6 on). This is one part of the list.

B1: GBRAP_53_6395 (protein)
chain: AEAEIKEGVAELEALIAEVEADPTLDAAEVAKRAGELLKKLAEAGAPEEELTALAKRLAEAVAAKGLGVEVSTALAKTAAEAGREEVAYVFIEAAVEDLE
B2: GBRAP_52_6102 (protein)
chain: MREELRKKVREILELVREGKLEEARKKIKELVESLNDEEIRLVADEIAELAREAAPEDLDAVWTLAEMFAEELEKAGKPEVLVDYLLASTAAALYEREQA
B3: GBRAP_184_5148 (protein)
chain: TTLRAAIEAATVEEALAKAREVFAEAKAAGADLTLHVFAEGFSVEEIAALAAALKAAADEAGLTNATIILHVEADEEEADEVLAAADAAGVRAVIALLEP
B4: GBRAP_160_4789 (protein)
chain: SERVERAAALIREELERALELSEGESPEERVNIFDVELGAAIMELIEEGLLDDEEEEVVAEARDELVAAVRANPDLTPEELRALAEAAVERVRAALEALE
B5: GBRAP_9_7113 (protein)
chain: MEVDKEVLKKAVEEAEKDLKKLAEDLENEKVKEIVEEAIKELKKLTEIEGITLEELEEKLDEIVEKAVKRAKEEVSEEIAKALEAELLTEKEDILEAVEE
B6: GBRAP_160_4437 (protein)
chain: MEKLEKAKKEIDEIIAEAIEMTKGESAEQRIVIVRVARGEILLELEELGLLTDKIDKVIDETFDAIIATIEANPDISDEELAAMLEEARDKIIEELDKEF
B7: GBRAP_14_3781 (protein)
chain: MEEIEKIIREEADRIIELLTEIVPEKAEEIRAIVEEVRDKTIARIRETGNAEEAADEGREELIARIRELLADEPEEVRAQAIAVVDVEFGQAILEIEELL
B8: GBRAP_128_3296 (protein)
chain: SAAELRARFEARVRALTALTPEALYEATLALIAEASALGLEAVEILVEVLEKHLPLFTPEQLEAIAAALAEAAKTATPEERALLADAENDALLEAEEKEE
B9: GBRAP_160_4434 (protein)
chain: SEKLEKAKKEIKEIAEEAAEMMKGESAEQRQVVVRVMEGEIILELEELGLLTEEIDKLIEEKAEEIIKYIKENPNISDEEFAKMLEAFVKEISEKLEKEF
B10: GBRAP_166_4884 (protein)
chain: MKEKLKEETKEFIKKLAEEAKGKSPEEVLELIIEVAEKIKEAKEAGLSEEDLLELIKYAVEEFSKIGWDPTLVAGIIINEADLSEELKEKVLDYIEELKK
B11: GBRAP_80_6858 (protein)
chain: AEEELEKALAELEKLLPEVAEDAKEIVELAKEMGVPYEDIAELMRALAELAKVDPELAAELIKELLKDLKEAKEEGDSENALALVRGYAGEALMEAEELE
B12: GBRAP_52_6026 (protein)
chain: MRAELEAAVREALALVRAGDLEAARALLEELVASLNDEELELLTEVVAALAAAAAPEDQEAVWTLTELAAEAMEEAGADEALADDLEARTAAALYEAEQR
B13: GBRAP_166_4936 (protein)
chain: SVEEALKRLKELIEEALEKMKTANAEEQTELWIEVGEALREAREAGVSLEELLEAVREFLKGVKELGLNIKIAAGIIINEADFTEEEIDKVWEIVDEILK
B14: GBRAP_128_3204 (protein)
chain: VSPEAVAALRALADEAAATKTDEALKAFADAVAAALKAGRLDLDSLEAIVSYLGSKLDEDDLVKAADALRAALADVGAEALATALGALGEVLMEKIEEEE
B15: GBRAP_128_3452 (protein)
chain: STEEKVKKAEELMNKIIESSDEEVPALAAELVDLIGESDDESAKAIAEVIIKKIPELSEEKLEILADVFVARRPELTPEKQEVLNEIAVAIGEEILEKEE
B16: GBRAP_80_6808 (protein)
chain: AEERLERALKEIEEIDPELAERVRRIVELARALGVSEETLAEFVEAVAKLAKIDVEKARELVEELEEDLLEEAARGDTARAEAVLRVYAGEFLLEVEELE
B17: GBRAP_128_3454 (protein)
chain: SVEEVREWTRATMEEVKEADLETARELFRELAARLTTLSLEEVEAAVEVIEEMLPELTPEKLDILAEVFREALPQFTPEKAALVADAASDALLLAEEKEE
B18: GBRAP_128_3356 (protein)
chain: LDEAFLAEVRALLDRMVASDVAETYALAKELLARMATASPEEREAAVELMHEHLPKLTAEKLDAVADAIDEMAPAFDPYTAELMAEVRVDALNEAEEKEE
B19: GBRAP_52_6066 (protein)
chain: SEARIEALAEAITAAVAAGDKEGALALIAEAIKELSLEEIKRMLELAAEKVAKLGEEQHELFVDVLDEAEDLLIEAGISEEDALLIVGSAEAALAKAVAA
B20: GBRAP_160_4856 (protein)
chain: SEKLEKALEIVREEREEALAAVEEAPASQRAAIAEAIALQAIDELEEEGLITEETEEKLLEVVDELRAELEANADASVEEWKAMVREAFERMEEIIKELS
B21: GBRAP_53_6406 (protein)
chain: KEEEIEKLKKEILELTEKATKAGPEERKKLVEEIGKKLKELKKAGASDEEITELAKEVAEKLKKAGADPSDHVTLAQAAADLGLEEATAVFAEAAVEDLE
B22: GBRAP_80_6846 (protein)
chain: AAARLAAELAALKALLPEVAEDAKEAVALARELGVPDADIADYLAALNELAKLDPELAAALLKELLADLREEKAEGDSENALAVVRGYTGEALMEAEELE
B23: GBRAP_48_5823 (protein)
chain: MEIDEELIEKLVEEKVEEMYELYEEAKKAGLSDEEILKLIRAELGDLALDLEEAGFTKAADWLRERENRDELAKKLYEFFKKGKIEEAKKYLFEELKKVE
B24: GBRAP_166_4932 (protein)
chain: SLEEIYEKAKKEVNELAEKAKTADEEELIELALEAEEILKEAKEKGLSKEELKEILLDALSLLKDNPEKALAFARYIEAAAGDDEELIDVIDEAKKEFLK
B25: GBRAP_78_6697 (protein)
chain: EVEELLEKALELLDQALKLSKQLPEDLRNEVTYHLVEAITDLEEAIEEGADLEELKEALEHLDKAIALVKANDTPLTQPLLKLLTEAKKLLEEAIKKLEE
B26: GBRAP_52_6342 (protein)
chain: SEERIRAVAEAIAAAIAAGDLDGAVELTRKAVKEFSREEVREMMRLTAELAVERLPDRPDLVMEAAFRIADVIEEELGDEVLADDFEAYTARLLVERQAA
B27: GBRAP_14_3847 (protein)
chain: VEELVKAVKETAEELAKFVKEVAPEKAEEIIAKVKELAEEIIKKIKEEKLNKEEVDELMEKFAEELAKYLKEKGYLSDTEIAAVKAHIISEGLLKLEEIE
B28: GBRAP_52_6275 (protein)
chain: MEEEAERLAEEFIRVALEGSEEEIREFARRLVEEKSEELIARVLEIVVEKAEELNAEEIEKLLEAVLILEGELEEAGRDPLPAQDAAARLAKLHEEKLKE
B29: GBRAP_128_3563 (protein)
chain: SVEEAVAKAEELLEKIKNSGPEEARKYAKELAELLAAASPEAREAITETILSRLPELSPEKLDILADVFAEARPAADPATAEALAEIQVEALNEREEKEE

Each binder was assayed against GABARAP, O95166 (assay: median log2 fold change of GCK-ALFA target abundance (FLAG IP / Myc IP barcode read proportion) (log2 ratio); each designed protein is fused to an ALFA-tag nanobody in HEK293 cells to bring the named protein to FLAG-tagged glucokinase (GCK); Myc marks an untargeted standard; higher = target protein stabilised (more abundant)). Details: target protein: 3xFLAG-MCP-GCK-ALFA reporter; HEK293 landing pad (RPLP).
GABARAP, O95166, sequence (O95166 whole entry, the tested form may be a part): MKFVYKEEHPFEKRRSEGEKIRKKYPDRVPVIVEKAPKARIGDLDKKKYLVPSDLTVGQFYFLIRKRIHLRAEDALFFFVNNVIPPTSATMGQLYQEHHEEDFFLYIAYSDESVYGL
Procedure, shortened: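 The readout is target abundance, the per-binder median log2 ratio of FLAG to Myc barcode read proportions. It came from HEK293 landing-pad cells carrying a recombined ALFA-nanobody-fused binder library, induced with 2 μg mL^−1 doxycycline and transfected with a plasmid for a FLAG-tagged target and a Myc-tagged standard. After 48 h, lysates were immunoprecipitated with anti-FLAG and anti-Myc, and circular RNA barcodes were reverse transcribed, amplified and sequenced. Each barcode needed a proportion of at least 10^−7 in both replicates and each binder at least 3 barcodes per replicate, a pseudocount of 10^−6 was added, and the replicates were pooled.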

Row | Binder | median log2 fold change
1 | B1 | 0.239
2 | B2 | 0.197
3 | B3 | 0.038
4 | B4 | 0.205
5 | B5 | 0.305
6 | B6 | -0.0852
7 | B7 | 0.184
8 | B8 | 0.161
9 | B9 | -0.0228
10 | B10 | 0.278
11 | B11 | -0.0923
12 | B12 | -0.261
13 | B13 | 0.335
14 | B14 | 0.241
15 | B15 | 0.274
16 | B16 | -0.444
17 | B17 | 0.24
18 | B18 | 0.111
19 | B19 | -0.486
20 | B20 | 0.124
21 | B21 | 0.254
22 | B22 | -0.698
23 | B23 | 0.173
24 | B24 | 0.187
25 | B25 | 0.0855
26 | B26 | -0.225
27 | B27 | 0.253
28 | B28 | 0.0823
29 | B29 | 0.232
